# Measurements published in the supplement of paper PMC8728848.
# The list shows a part of the results.
# B1: CML1 (Coprinopsis cinerea) (protein)
# chain: MAIFHTGSELFIITRGPGKLTLLTWGGLNNLRSVIGAIPTENTGVTKWAVSFSHNYTRFSFIWEGQGEACYQIGNGLTRSPVGRSWSSSSTIHWGSSTVITEDVTSVVPGAVNRDKVTTAYALPDNL
# Tests used:
# Assay in all cases: glycan array binding signal (z-score within array); higher = stronger binding
# Settings in all cases: glycan notation: IUPAC condensed, linker removed
# [1] = biological target: Neu5Ac(a2-6)Gal(b1-4)GlcNAc(b1-3)Gal(b1-4)GlcNAc(b1-3)Gal(b1-4)GlcNAc
# Summary of the method: (§1)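 Glycan array data were curated from 3228 arrays in the Consortium for Functional Glycomics database and kept only where the protein sequence was available. Glycan names were converted to IUPAC-condensed notation, and columns mapping to the same glycan were averaged. The binding signal is a within-array Z-score, averaged across arrays of the same protein sequence at different concentrations or buffers and across linkers. Negative Z-scores can be read as non-binding.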
# [2] = biological target: Neu5Ac(a2-6)Gal(b1-4)GlcNAc(b1-3)Gal(b1-4)GlcNAc(b1-3)Gal(b1-4)GlcNAc(b1-2)Man(a1-3)[Neu5Ac(a2-6)Gal(b1-4)GlcNAc(b1-3)Gal(b1-4)GlcNAc(b1-3)Gal(b1-4)GlcNAc(b1-2)Man(a1-6)]GalNAc
# Summary of the method: as §1
# [3] = biological target: Neu5Ac(a2-6)Gal(b1-4)GlcNAc(b1-3)Gal(b1-4)GlcNAc(b1-3)GalNAc
# Summary of the method: as §1
# [4] = biological target: Neu5Ac(a2-6)Gal(b1-4)GlcNAc(b1-3)Gal(b1-4)GlcNAc(b1-3)[Neu5Ac(a2-6)Gal(b1-4)GlcNAc(b1-3)Gal(b1-4)GlcNAc(b1-6)]GalNAc
# Summary of the method: as §1
# [5] = biological target: Neu5Ac(a2-6)Gal(b1-4)GlcNAc(b1-3)Gal(b1-4)GlcNAc(b1-6)[Gal(b1-3)]GalNAc
# Summary of the method: as §1
# [6] = biological target: Neu5Ac(a2-6)Gal(b1-4)GlcNAc(b1-3)Gal(b1-4)[Fuc(a1-3)]GlcNAc(b1-3)Gal(b1-4)[Fuc(a1-3)]GlcNAc
# Summary of the method: as §1
# [7] = biological target: Neu5Ac(a2-6)Gal(b1-4)GlcNAc(b1-3)GalNAc
# Summary of the method: as §1
# [8] = biological target: Neu5Ac(a2-6)Gal(b1-4)GlcNAc(b1-3)[Neu5Ac(a2-6)Gal(b1-4)GlcNAc(b1-6)]GalNAc
# Summary of the method: as §1
# [9] = biological target: Neu5Ac(a2-6)Gal(b1-4)GlcNAc(b1-6)GalNAc
# Summary of the method: as §1
# [10] = biological target: Neu5Ac(a2-6)Gal(b1-4)GlcNAc(b1-6)[Gal(b1-3)GlcNAc(b1-3)]Gal(b1-4)Glc
# Summary of the method: as §1
# [11] = biological target: Neu5Ac(a2-6)Gal(b1-4)GlcNAc(b1-6)[Gal(b1-3)]GalNAc
# Summary of the method: as §1
# [12] = biological target: Neu5Ac(a2-6)Gal(b1-4)GlcNAc6S
# Summary of the method: as §1
# Neu5Ac(a2-6)GalNAc = biological target: Neu5Ac(a2-6)GalNAc
# Summary of the method: as §1
# [13] = biological target: Neu5Ac(a2-6)GalNAc(b1-4)GlcNAc
# Summary of the method: as §1
# [14] = biological target: Neu5Ac(a2-6)GalNAc(b1-4)GlcNAc6S
# Summary of the method: as §1
# [15] = biological target: Neu5Ac(a2-6)GlcNAc(b1-4)GlcNAc
# Summary of the method: as §1
# [16] = biological target: Neu5Ac(a2-6)GlcNAc(b1-4)GlcNAc(b1-4)GlcNAc
# Summary of the method: as §1
# Neu5Ac(a2-8)Neu5Ac = biological target: Neu5Ac(a2-8)Neu5Ac
# Summary of the method: as §1
# [17] = biological target: Neu5Ac(a2-8)Neu5Ac(a2-3)Gal(b1-3)GalNAc(b1-4)[Neu5Ac(a2-3)]Gal(b1-4)Glc
# Summary of the method: as §1
# [18] = biological target: Neu5Ac(a2-8)Neu5Ac(a2-3)Gal(b1-3)GalNAc(b1-4)[Neu5Ac(a2-8)Neu5Ac(a2-3)]Gal(b1-4)Glc
# Summary of the method: as §1
# [19] = biological target: Neu5Ac(a2-8)Neu5Ac(a2-3)Gal(b1-4)Glc
# Summary of the method: as §1
# [20] = biological target: Neu5Ac(a2-8)Neu5Ac(a2-3)Gal(b1-4)GlcNAc
# Summary of the method: as §1
# [21] = biological target: Neu5Ac(a2-8)Neu5Ac(a2-3)[Gal(b1-3)GalNAc(b1-4)]Gal(b1-4)Glc
# Summary of the method: as §1
# [22] = biological target: Neu5Ac(a2-8)Neu5Ac(a2-3)[GalNAc(b1-4)]Gal(b1-4)Glc
# Summary of the method: as §1
# [23] = biological target: Neu5Ac(a2-8)Neu5Ac(a2-8)Neu5Ac
# Summary of the method: as §1
# [24] = biological target: Neu5Ac(a2-8)Neu5Ac(a2-8)Neu5Ac(a2-3)Gal(b1-4)Glc
# Summary of the method: as §1
# [25] = biological target: Neu5Ac(a2-8)Neu5Ac(a2-8)Neu5Ac(a2-3)[Gal(b1-3)GalNAc(b1-4)]Gal(b1-4)Glc
# Summary of the method: as §1
# [26] = biological target: Neu5Ac(a2-8)Neu5Ac(a2-8)Neu5Ac(a2-3)[GalNAc(b1-4)]Gal(b1-4)Glc
# Summary of the method: as §1
# [27] = biological target: Neu5Ac(a2-8)Neu5Ac(a2-8)Neu5Ac(a2-8)Neu5Ac(a2-3)[GalNAc(b1-4)]Gal(b1-4)Glc
# Summary of the method: as §1
# [28] = biological target: Neu5Ac(a2-8)Neu5Gc(a2-3)Gal(b1-4)GlcNAc
# Summary of the method: as §1
# [29] = biological target: Neu5Ac(b2-6)Gal(b1-4)GlcNAc
# Summary of the method: as §1
# Neu5Ac(b2-6)GalNAc = biological target: Neu5Ac(b2-6)GalNAc
# Summary of the method: as §1
# [30] = biological target: Neu5Ac9Ac(a2-3)Gal(b1-3)GlcNAc
# Summary of the method: as §1
# [31] = biological target: Neu5Ac9Ac(a2-3)Gal(b1-4)GlcNAc
# Summary of the method: as §1
# [32] = biological target: Neu5Ac9Ac(a2-6)Gal(b1-4)GlcNAc
# Summary of the method: as §1
# [33] = biological target: Neu5Gc(a2-3)Gal(b1-3)GlcNAc
# Summary of the method: as §1
# [34] = biological target: Neu5Gc(a2-3)Gal(b1-3)[Fuc(a1-4)]GlcNAc
# Summary of the method: as §1
# Neu5Gc(a2-3)Gal(b1-4)Glc = biological target: Neu5Gc(a2-3)Gal(b1-4)Glc
# Summary of the method: as §1
# [35] = biological target: Neu5Gc(a2-3)Gal(b1-4)GlcNAc
# Summary of the method: as §1
# [36] = biological target: Neu5Gc(a2-3)Gal(b1-4)GlcNAc(b1-3)Gal(b1-4)GlcNAc(b1-2)Man(a1-3)[Neu5Gc(a2-3)Gal(b1-4)GlcNAc(b1-3)Gal(b1-4)GlcNAc(b1-2)Man(a1-6)]Man(b1-4)GlcNAc(b1-4)GlcNAc
# Summary of the method: as §1
# [37] = biological target: Neu5Gc(a2-3)Gal(b1-4)[Fuc(a1-3)]GlcNAc
# Summary of the method: as §1
# [38] = biological target: Neu5Gc(a2-6)Gal(b1-4)GlcNAc
# Summary of the method: as §1
# Neu5Gc(a2-6)GalNAc = biological target: Neu5Gc(a2-6)GalNAc
# Summary of the method: as §1
# [39] = biological target: Neu5Gc(a2-8)Neu5Ac(a2-3)Gal(b1-4)GlcNAc
# Summary of the method: as §1
# [40] = biological target: Neu5Gc(a2-8)Neu5Gc(a2-3)Gal(b1-4)GlcNAc
# Summary of the method: as §1
binder,measurement,setting,value
B1,glycan array binding signal (z-score),[1],-0.315
same,glycan array binding signal (z-score),[2],-0.299
same,glycan array binding signal (z-score),[3],-0.347
same,glycan array binding signal (z-score),[4],-0.324
same,glycan array binding signal (z-score),[5],-0.314
same,glycan array binding signal (z-score),[6],-0.159
same,glycan array binding signal (z-score),[7],-0.347
same,glycan array binding signal (z-score),[8],-0.323
same,glycan array binding signal (z-score),[9],-0.317
same,glycan array binding signal (z-score),[10],-0.355
same,glycan array binding signal (z-score),[11],-0.323
same,glycan array binding signal (z-score),[12],-0.334
same,glycan array binding signal (z-score),Neu5Ac(a2-6)GalNAc,-0.331
same,glycan array binding signal (z-score),[13],-0.351
same,glycan array binding signal (z-score),[14],-0.33
same,glycan array binding signal (z-score),[15],-0.33
same,glycan array binding signal (z-score),[16],-0.334
same,glycan array binding signal (z-score),Neu5Ac(a2-8)Neu5Ac,-0.351
same,glycan array binding signal (z-score),[17],-0.299
same,glycan array binding signal (z-score),[18],-0.357
same,glycan array binding signal (z-score),[19],-0.36
same,glycan array binding signal (z-score),[20],-0.348
same,glycan array binding signal (z-score),[21],-0.323
same,glycan array binding signal (z-score),[22],-0.317
same,glycan array binding signal (z-score),[23],-0.327
same,glycan array binding signal (z-score),[24],-0.312
same,glycan array binding signal (z-score),[25],-0.31
same,glycan array binding signal (z-score),[26],-0.328
same,glycan array binding signal (z-score),[27],-0.35
same,glycan array binding signal (z-score),[28],-0.354
same,glycan array binding signal (z-score),[29],-0.353
same,glycan array binding signal (z-score),Neu5Ac(b2-6)GalNAc,-0.357
same,glycan array binding signal (z-score),[30],-0.361
same,glycan array binding signal (z-score),[31],-0.348
same,glycan array binding signal (z-score),[32],-0.315
same,glycan array binding signal (z-score),[33],-0.353
same,glycan array binding signal (z-score),[34],3.04
same,glycan array binding signal (z-score),Neu5Gc(a2-3)Gal(b1-4)Glc,-0.348
same,glycan array binding signal (z-score),[35],-0.323
same,glycan array binding signal (z-score),[36],-0.336
same,glycan array binding signal (z-score),[37],1.47
same,glycan array binding signal (z-score),[38],-0.33
same,glycan array binding signal (z-score),Neu5Gc(a2-6)GalNAc,-0.348
same,glycan array binding signal (z-score),[39],-0.346
same,glycan array binding signal (z-score),[40],-0.334
